This is an account of results in PMC2566937 (Journal of medicinal chemistry, 2008).

Structures are written as SMILES. Marks after values point to notes of the source that are not given here.

For test [1], the target named is T1, α2β3γ2 GABAA receptor (Rattus norvegicus, UniProt P23576+P63079).
The target in test [2] is α6β3γ2 GABAA receptor (Rattus norvegicus, UniProt P30191+P63079). Conditions: for Current induced by compound alone, % of maximal GABA-induced current: 1 mM compound.
The target of test [3] is T1, α2β3γ2 GABAA receptor. Format: cell-based. Particulars: HEK293, read-out: Inhibition of GABA-induced current.

On to `Cc1nnc(C2CCNCC2)o1.Cl` [compound 19, 4-(5-Methyl-[1,3,4]oxadiazol-2-yl)-piperidine Hydrochloride], for which the “Current induced by compound alone, % of maximal GABA-induced current” value (“Current induced by compound alone, %” for short) in test [1] (1 mM compound) is reported as “less than 10%”.
For the molecule `Cl.Oc1nnc(C2CCNCC2)o1` [5a, 5-Piperidin-4-yl-3H-[1,3,4]oxadiazol-2-one Hydrochloride], in test [2], the “Current induced by compound alone, %” value is given as “less than 10%”.
On to `Cl.Sc1nnc(C2CCNCC2)o1` [6a, 5-Piperidin-4-yl-3H-[1,3,4]oxadiazol-2-thione Hydrochloride], for which the “Current induced by compound alone, %” value in test [2] was “less than 10%”. The inhibition at 1000 µM in test [3] came out at 24 ± 9%.
As to `Cl.NCc1nnc(O)o1` [5d, 5-Aminomethyl-3H-[1,3,4]oxadiazol-2-one Hydrochloride], the “Hill coefficient (direct activation)” value in test [2] is 1.41 ± 0.14; in test [1] (value of an extrapolated dose-response curve) it was 1.23 ^*.

Broadly, the inhibition is how much of the control response was suppressed.
